Results from patent publication US20240239863A1, “GIP RECEPTOR AGONIST AND USE THEREOF” (HANGZHOU ZHONGMEIHUADONG PHARMACEUTICAL CO., LTD., priority 2022, published 2024).
pEC50: −log10 of the molar value. Entries after “also recorded” stand apart in the source; their conditions may differ. At least one structure is not confirmed: it was looked up by name or label, or the drawing left a doubt. Some entries repeat one wording, which the source may state once for all of them. Starred links: 1 amine or outer side, 2 acyl side, 3 side chain; linkers in the order of their positions; H or OH if unused. Non-standard residues stand in square brackets, D forms with d. Residues, ends and D or L forms follow the SMILES beside them. Groups on a side chain read outwards from the residue. ξ: configuration not given here. *: point of attachment. d(γGlu) = O=C(O)[C@@H](CCC(=O)[*:2])N[*:1]; C18 diacid = O=C(O)CCCCCCCCCCCCCCCCC(=O)*; ξγGlu = O=C(O)C(CCC(=O)[*:2])N[*:1]; AEEA = NCCOCCOCC(=O)O; Aib = CC(C)(N)C(=O)O

Tests used:
hGLP-1R = hGLP-1R (Homo sapiens, UniProt P43220); test: Cell agonistic activity at GLP-1 receptor (Example 7); format: cell-based; details: read-out: hGLP-1R EC50
[1] = IPGTT after long-acting conjugates of GIP analogs (Example 8); format: in vivo, db/db male mice; details: db/db mice, glucose 2 g/kg i.p., 0-120 min
[2] = Body weight of DIO mice after 28 days of administration (Example 10); format: in vivo, DIO male mice; details: 90 nmol/kg s.c. QD
Protocol: Eight or more C57BL/6J male mice at an age of 16 to 18 weeks and fifty-six or more DIO male mice with obesity induced by high-fat feed at an age of 16 to 18 weeks were selected. After entering the animal facility, all mice were adaptively fed for 3 days or more. They were required to adapt for 3 days before grouping. All mice were measured for body weight, body fat ratio and fasting blood glucose. Fifty-six DIO mice were randomly grouped primarily based on body weight and fasting blood glucose and secondarily based on body fat ratio. 8 C57BL/6J mice of close weekly age were assigned into the healthy control group. Each mouse in all groups was housed in a separate cage for 2-3 days to adapt to environment before grouping. During the period, the mice were adaptively caught and administrated with blank solvent daily. The day of grouping was Day 0, and the administration was continued for 28 days. […]
The body weight of each mouse was recorded every day according to the frequency of administration. Postprandial blood glucose was measured every 3 days, fasting blood glucose was measured every 7 days, and IPGTT (Intraperitoneal Glucose Tolerance Tests) was conducted once before the end point. […]

hGIPR = target: T1, hGIPR (Homo sapiens, UniProt P48546); test: HTRF cAMP cell agonistic activity assay, HEK293 stably expressing GIPR (Example 7); format: cell-based; details: read-out: hGIPR EC50
T1 construct: expressed in transfected cells; host or cells: HEK293, stably transduced
T1 sequence (P48546 22-466): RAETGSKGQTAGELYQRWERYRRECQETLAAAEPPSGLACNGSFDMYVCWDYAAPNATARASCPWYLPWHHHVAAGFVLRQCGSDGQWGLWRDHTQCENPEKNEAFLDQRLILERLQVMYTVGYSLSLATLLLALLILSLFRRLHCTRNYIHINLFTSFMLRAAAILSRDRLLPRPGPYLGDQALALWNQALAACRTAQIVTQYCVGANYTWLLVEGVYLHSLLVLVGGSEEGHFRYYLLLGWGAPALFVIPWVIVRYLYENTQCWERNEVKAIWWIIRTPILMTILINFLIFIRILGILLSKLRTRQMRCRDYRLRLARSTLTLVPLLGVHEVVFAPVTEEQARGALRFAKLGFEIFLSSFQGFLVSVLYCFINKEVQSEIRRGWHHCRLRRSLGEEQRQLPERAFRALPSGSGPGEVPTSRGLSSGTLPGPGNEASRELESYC
Protocol: The agonistic activity of the compounds on the receptor was determined using the HTRF kit (purchased from Perkin Elmer). All reagents in the kit were allowed to equilibrate to room temperature before use. A 1× Stimulation Buffer was formulated according to the instruction in the kit for use. […] GIPR cells were digested with trypsin, centrifuged to remove the culture medium. The cells were resuspended in the 1× Stimulation Buffer. After being counted, 9 μL cell dilutions were inoculated into a 384-well plate at 1000 cells/well. 1 μL the 10× compound diluted in step 2 was taken and added to the corresponding test well, wherein 1 μL the 10× initial concentration positive compound was added to the PC hole (Min value), and 1 μL the 10×DMSO buffer (1%) was added to the VC hole (Max value). The plate was centrifuged and incubated at 37 °C for 30 minutes. Eu-cAMP was diluted with Detection buffer to a working concentration, and the diluent was added into the corresponding test well at 5 μL/well. ULight-anti-Camp was diluted with Detection buffer to a working concentration, and the diluent was added into the corresponding test well at 5 μL/well. After being centrifuged, the plate was incubated at room temperature for 1 hour. […] The nonlinear regression method of GraphPad Prism software was used for curve fitting and EC50 calculation.

hGLP-1R, sequence (P43220 24-463): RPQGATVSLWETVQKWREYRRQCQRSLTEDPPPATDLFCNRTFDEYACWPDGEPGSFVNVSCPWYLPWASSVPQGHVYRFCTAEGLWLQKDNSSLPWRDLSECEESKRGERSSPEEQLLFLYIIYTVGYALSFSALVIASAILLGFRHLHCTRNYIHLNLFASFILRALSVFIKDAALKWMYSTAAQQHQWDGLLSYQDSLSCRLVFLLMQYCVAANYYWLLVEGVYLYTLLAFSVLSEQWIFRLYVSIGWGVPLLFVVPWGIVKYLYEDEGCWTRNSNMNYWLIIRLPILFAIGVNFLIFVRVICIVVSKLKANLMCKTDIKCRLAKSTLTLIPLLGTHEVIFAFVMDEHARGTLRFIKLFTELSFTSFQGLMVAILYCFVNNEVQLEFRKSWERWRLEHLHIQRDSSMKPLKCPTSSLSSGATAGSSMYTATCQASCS

Structure (SMILES): CC[C@H](C)[C@H](NC(=O)[C@H](CO)NC(=O)[C@H](Cc1ccc(O)cc1)NC(=O)[C@H](CC(=O)O)NC(=O)[C@H](CO)NC(=O)[C@@H](NC(=O)[C@H](Cc1ccccc1)NC(=O)[C@@H](NC(=O)CNC(=O)[C@H](CCC(=O)O)NC(=O)C(C)(C)NC(=O)[C@@H](N)Cc1ccc(O)cc1)[C@@H](C)O)[C@@H](C)CC)C(=O)N[C@@H](C)C(=O)N[C@@H](CC(C)C)C(=O)N[C@@H](CC(=O)O)C(=O)N[C@@H](CCCCNC(=O)COCCOCCNC(=O)COCCOCCNC(=O)CC[C@@H](NC(=O)CCCCCCCCCCCCCCCCC(=O)O)C(=O)O)C(=O)N[C@H](C(=O)N[C@@H](Cc1c[nH]cn1)C(=O)N[C@@H](CCC(N)=O)C(=O)N[C@@H](CCC(N)=O)C(=O)N[C@@H](CC(=O)O)C(=O)N[C@@H](Cc1ccccc1)C(=O)N[C@H](C(=O)N[C@@H](CC(N)=O)C(=O)N[C@@H](Cc1c[nH]c2ccccc12)C(=O)N[C@@H](CC(C)C)C(=O)N[C@@H](CC(C)C)C(=O)N[C@@H](C)C(=O)N[C@@H](CCC(N)=O)C(=O)N[C@@H](CCCNC(=N)N)C(=O)NCC(=O)O)C(C)C)[C@@H](C)CC [Peptide 7, N-{ε-16}-18-{[(23R)-23-carboxyl-2,11,20-trioxo-10,19-diaza-4,7,13,16-tetraoxatricosyl-23-yl]amino}-18-oxooctadecanoic acid acetyl-[Aib2, L14, R30]-hGIP(1-31)] (H-Y[Aib]EGTFISDYSIALDK([AEEA-AEEA-d(γGlu)-C18 diacid])IHQQDFVNWLLAQRG-OH)
- pEC50 (hGLP-1R): < 10.00
- blood glucose tolerance in IPGTT (blood glucose change and AUC, FIGS. 1 and 2) [1]: significantly improved; also recorded: particularly significant effect
- Weight [2]: 44.6 ± 1.0 g
- Weight Change [2]: +3.2%

Structure (SMILES): CC[C@H](C)[C@H](NC(=O)[C@H](CO)NC(=O)[C@H](Cc1ccc(O)cc1)NC(=O)[C@H](CC(=O)O)NC(=O)[C@H](CO)NC(=O)[C@@H](NC(=O)[C@H](Cc1ccccc1)NC(=O)[C@@H](NC(=O)CNC(=O)[C@H](CCC(=O)O)NC(=O)C(C)(C)NC(=O)[C@@H](N)Cc1ccc(O)cc1)[C@@H](C)O)[C@@H](C)CC)C(=O)N[C@@H](C)C(=O)N[C@@H](CC(C)C)C(=O)N[C@@H](CC(=O)O)C(=O)N[C@@H](CCCCNC(=O)COCCOCCNC(=O)COCCOCCNC(=O)CCC(NC(=O)CCCCCCCCCCCCCCCCC(=O)O)C(=O)O)C(=O)N[C@H](C(=O)N[C@@H](Cc1c[nH]cn1)C(=O)N[C@@H](CCC(N)=O)C(=O)N[C@@H](CCC(=O)O)C(=O)N[C@@H](CC(=O)O)C(=O)N[C@@H](Cc1ccccc1)C(=O)N[C@H](C(=O)N[C@@H](CC(N)=O)C(=O)N[C@@H](Cc1c[nH]c2ccccc12)C(=O)N[C@@H](CC(C)C)C(=O)N[C@@H](CC(C)C)C(=O)N[C@@H](C)C(=O)N[C@@H](CCC(N)=O)C(=O)N[C@@H](CCCNC(=N)N)C(=O)NCC(=O)O)C(C)C)[C@@H](C)CC (stereo partly drawn) [Peptide 9, N-{ε-16}-18-{[(23R)-23-carboxyl-2,11,20-trioxo-10,19-diaza-4,7,13,16-tetraoxatricosyl-23-yl]amino}-18-oxooctadecanoic acid acetyl-[Aib2, L14, E20, R30]-hGIP(1-31)] (H-Y[Aib]EGTFISDYSIALDK([AEEA-AEEA-ξγGlu-C18 diacid])IHQEDFVNWLLAQRG-OH; N-terminus and C-terminus assumed)
- pEC50 (hGLP-1R): < 10.00
- blood glucose tolerance in IPGTT (blood glucose change and AUC, FIGS. 1 and 2) [1]: significantly improved

Structure (SMILES): CC[C@H](C)[C@H](NC(=O)[C@H](CO)NC(=O)[C@H](Cc1ccc(O)cc1)NC(=O)[C@H](CC(=O)O)NC(=O)[C@H](CO)NC(=O)[C@@H](NC(=O)[C@H](Cc1ccccc1)NC(=O)[C@@H](NC(=O)CNC(=O)[C@H](CCC(=O)O)NC(=O)C(C)(C)NC(=O)[C@@H](N)Cc1ccc(O)cc1)[C@@H](C)O)[C@@H](C)CC)C(=O)N[C@@H](C)C(=O)N[C@@H](CC(C)C)C(=O)N[C@@H](CC(=O)O)C(=O)N[C@@H](CCCCNC(=O)COCCOCCNC(=O)COCCOCCNC(=O)CC[C@@H](NC(=O)CCCCCCCCCCCCCCCCC(=O)O)C(=O)O)C(=O)N[C@@H](CC(C)C)C(=O)N[C@@H](Cc1c[nH]cn1)C(=O)N[C@@H](CCC(N)=O)C(=O)N[C@@H](CCC(=O)O)C(=O)N[C@@H](CC(=O)O)C(=O)N[C@@H](Cc1ccccc1)C(=O)N[C@H](C(=O)N[C@@H](CC(N)=O)C(=O)N[C@@H](Cc1c[nH]c2ccccc12)C(=O)N[C@@H](CC(C)C)C(=O)N[C@@H](CC(C)C)C(=O)N[C@@H](C)C(=O)N[C@@H](CCC(N)=O)C(=O)N[C@@H](CCCNC(=N)N)C(=O)NCC(=O)O)C(C)C [Peptide 10, N-{ε-16}-18-{[(23R)-23-carboxyl-2,11,20-trioxo-10,19-diaza-4,7,13,16-tetraoxatricosyl-23-yl]amino}-18-oxooctadecanoic acid acetyl-[Aib2, L14, L17, E20, R30]-hGIP(1-31)] (H-Y[Aib]EGTFISDYSIALDK([AEEA-AEEA-d(γGlu)-C18 diacid])LHQEDFVNWLLAQRG-OH)
- blood glucose tolerance in IPGTT (blood glucose change and AUC, FIGS. 1 and 2) [1]: significantly improved

Structure (SMILES): CC[C@H](C)[C@H](NC(=O)[C@H](CO)NC(=O)[C@H](Cc1ccc(O)cc1)NC(=O)[C@H](CC(=O)O)NC(=O)[C@H](CO)NC(=O)[C@@H](NC(=O)[C@H](Cc1ccccc1)NC(=O)[C@@H](NC(=O)CNC(=O)[C@H](CCC(=O)O)NC(=O)C(C)(C)NC(=O)[C@@H](N)Cc1ccc(O)cc1)[C@@H](C)O)[C@@H](C)CC)C(=O)N[C@@H](C)C(=O)N[C@@H](CC(C)C)C(=O)N[C@@H](CC(=O)O)C(=O)N[C@@H](CCCNC(=N)N)C(=O)N[C@H](C(=O)N[C@@H](Cc1c[nH]cn1)C(=O)N[C@@H](CCC(N)=O)C(=O)N[C@@H](CCC(=O)O)C(=O)N[C@@H](CC(=O)O)C(=O)N[C@@H](Cc1ccccc1)C(=O)N[C@H](C(=O)N[C@@H](CCCCNC(=O)COCCOCCNC(=O)COCCOCCNC(=O)CC[C@@H](NC(=O)CCCCCCCCCCCCCCCCC(=O)O)C(=O)O)C(=O)N[C@@H](Cc1c[nH]c2ccccc12)C(=O)N[C@@H](CC(C)C)C(=O)N[C@@H](CC(C)C)C(=O)N[C@@H](C)C(=O)N[C@@H](CCC(N)=O)C(=O)N[C@@H](CCCNC(=N)N)C(=O)NCC(=O)O)C(C)C)[C@@H](C)CC [Peptide 11] (H-Y[Aib]EGTFISDYSIALDRIHQEDFVK([AEEA-AEEA-d(γGlu)-C18 diacid])WLLAQRG-OH)
- pEC50 (hGIPR): 11.46
- pEC50 (hGLP-1R): < 10.00

Structure (SMILES): CC[C@H](C)[C@H](NC(=O)[C@H](CO)NC(=O)[C@H](Cc1ccc(O)cc1)NC(=O)[C@H](CC(=O)O)NC(=O)[C@H](CO)NC(=O)[C@@H](NC(=O)[C@H](Cc1ccccc1)NC(=O)[C@@H](NC(=O)CNC(=O)[C@H](CCC(=O)O)NC(=O)C(C)(C)NC(=O)[C@@H](N)Cc1ccc(O)cc1)[C@@H](C)O)[C@@H](C)CC)C(=O)N[C@@H](C)C(=O)N[C@@H](CC(C)C)C(=O)N[C@@H](CC(=O)O)C(=O)N[C@@H](CCCNC(=N)N)C(=O)N[C@@H](CC(C)C)C(=O)N[C@@H](Cc1c[nH]cn1)C(=O)N[C@@H](CCC(N)=O)C(=O)N[C@@H](CCC(N)=O)C(=O)N[C@@H](CC(=O)O)C(=O)N[C@@H](Cc1ccccc1)C(=O)N[C@H](C(=O)N[C@@H](CC(N)=O)C(=O)N[C@@H](Cc1c[nH]c2ccccc12)C(=O)N[C@@H](CC(C)C)C(=O)N[C@@H](CC(C)C)C(=O)N[C@@H](C)C(=O)N[C@@H](CCC(N)=O)C(=O)N[C@@H](CCCCNC(=O)COCCOCCNC(=O)COCCOCCNC(=O)CC[C@@H](NC(=O)CCCCCCCCCCCCCCCCC(=O)O)C(=O)O)C(=O)NCC(=O)O)C(C)C [Peptide 18] (H-Y[Aib]EGTFISDYSIALDRLHQQDFVNWLLAQK([AEEA-AEEA-d(γGlu)-C18 diacid])G-OH)
- pEC50 (hGLP-1R): < 10.00
